{
  "source": "PubChem BioAssay AID485294",
  "about": "(National Center for Advancing Translational Sciences (NCATS), 2010)",
  "note": "In all, about 370,000 compounds went through this assay and about 150 (0.041%) were called active. This list was built around the results that the source calls inconclusive (neither active nor inactive); the mix of calls is not that of the screen. Calls come from the whole dose curve; as a rule, active = well fitted inhibition curve with a large enough effect; inconclusive = small, poorly fitted or top-dose-only effect; inactive = flat fitted curve, though single readings scatter. No potency is given beside an inconclusive call; the fits are too rough. Potency is the fitted concentration of half-maximal effect; tags give direction and shape of the fitted curve.",
  "data": [
    {"molecular_target": "Beta-lactamase (Escherichia coli (strain K12)) (UniProt P00811)", "sequence (P00811 whole entry, looked up)": "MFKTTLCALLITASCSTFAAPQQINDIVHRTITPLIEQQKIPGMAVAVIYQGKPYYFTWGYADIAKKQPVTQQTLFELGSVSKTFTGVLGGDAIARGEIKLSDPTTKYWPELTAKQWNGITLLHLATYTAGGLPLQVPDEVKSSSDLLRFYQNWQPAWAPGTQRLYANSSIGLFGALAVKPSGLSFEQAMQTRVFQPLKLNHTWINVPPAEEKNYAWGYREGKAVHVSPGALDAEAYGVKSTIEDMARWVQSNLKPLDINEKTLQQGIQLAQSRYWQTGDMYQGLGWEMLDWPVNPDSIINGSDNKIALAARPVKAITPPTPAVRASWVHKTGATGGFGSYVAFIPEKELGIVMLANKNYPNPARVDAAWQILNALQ", "assay": "qHTS Inhibitors of AmpC Beta-Lactamase (assay with detergent); note: nearly all actives have a fitted effect of over 25% in size", "details": "AmpC hydrolysis of nitrocefin, absorbance 480 nm, 0.01% Triton; series mostly up to 114 µM", "procedure,_shortened": "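AmpC (5.3 nM in the dispensed reagent) in 20 mM phosphate pH 7.0 with 0.01% (detergent screen) or 0.0001% Triton X-100 was preincubated with compounds for 15 min at room temperature. Nitrocefin was then added from an 800 uM solution, and hydrolysis was followed at 480 nm.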", "values": [
      {"smiles": "CC12CN3CC(C)(CN(C1)P3(=O)Oc1ccccc1)C2=O", "note": "(stereo not drawn)", "Potency": "inconclusive [inhibitor, full curve, poor fit]"},
      {"smiles": "CCCCc1ccc(NC(=O)Cn2nnc3sc4c(c3c2=O)CCC(C)C4)cc1", "note": "(stereo not drawn)", "Potency": "inactive"},
      {"smiles": "CCOC(=O)C1=C(COC(=O)CCOc2ccc(C)cc2)NC(=O)NC1C", "note": "(stereo not drawn)", "Potency": "inconclusive [inhibitor, full curve]"},
      {"smiles": "O=C(Cn1nnc(-c2cccs2)n1)N1CCc2ccccc2C1", "Potency": "inconclusive [inhibitor, full curve, poor fit]"},
      {"smiles": "OC1(C(F)(F)F)CC(c2ccc3ccccc3c2)=NO1", "note": "(stereo not drawn)", "Potency": "inactive"},
      {"smiles": "COc1ccc(C(=O)Nc2cc(C)c3c(=O)oc4ccccc4c3n2)cc1", "Potency": "inconclusive [inhibitor, full curve, poor fit]"},
      {"smiles": "CCOc1ccc2nc(SCCNS(=O)(=O)c3ccccc3)sc2c1", "Potency": "inconclusive [inhibitor, full curve, poor fit]"},
      {"smiles": "O=C(CSc1c(F)c(F)cc(F)c1F)Nc1ccc(C2SCCS2)cc1", "Potency": "inactive"},
      {"smiles": "Cc1cc(C)cc(C(=O)NCC(=O)OC(C)C(=O)N(C)c2ccccc2)c1", "note": "(stereo not drawn)", "Potency": "inconclusive [inhibitor, full curve, poor fit]"},
      {"smiles": "CCCCC(=O)Nc1cccc(-c2nc3ncccc3o2)c1C", "Potency": "inactive"},
      {"smiles": "Cn1c(N)c(C(=O)CSc2nc3ccccc3n2-c2ccccc2)c(=O)n(C)c1=O", "Potency": "inconclusive [inhibitor, full curve, poor fit]"},
      {"smiles": "Cc1nn(CC(=O)N2CCOCC2)c(=O)c2ccccc12", "Potency": "inconclusive [inhibitor, full curve, poor fit]"},
      {"smiles": "Cc1c(CCC(=O)NCCCn2ccnc2)c(=O)oc2c(C)c3oc4c(c3cc12)CCCC4", "Potency": "inconclusive [inhibitor, partial curve]"},
      {"smiles": "CC1Cc2ccccc2N1C(=O)C1CCCN(S(=O)(=O)c2cccc3cccnc23)C1", "note": "(stereo not drawn)", "Potency": "inconclusive [inhibitor, single point]"},
      {"smiles": "Cc1cc(NC(=O)C(C)Oc2ccc(Cl)cc2Cl)n(-c2ccccc2)n1", "note": "(stereo not drawn)", "Potency": "inconclusive [inhibitor, single point]"},
      {"smiles": "Cc1ccc(NC(=O)CC2SC3=NCCN3C2=O)cc1", "note": "(stereo not drawn)", "Potency": "inactive"},
      {"smiles": "COc1cc(C)ccc1OCCCn1c(-c2ccc(Cl)cc2)nc2ccccc2c1=O", "Potency": "inactive"},
      {"smiles": "COc1ccccc1C(=O)NCC(=O)OC(C)C(=O)N(C)C1CCCCC1", "note": "(stereo not drawn)", "Potency": "inconclusive [inhibitor, full curve, poor fit]"},
      {"smiles": "Oc1ccc(C=Nc2cccc3ncccc23)c(O)c1", "Potency": "inconclusive [inhibitor, full curve, poor fit]"},
      {"smiles": "Brc1ccc(-c2csc(N3CCCCC3)n2)cc1", "Potency": "inconclusive [inhibitor, full curve, poor fit]"},
      {"smiles": "COc1ccc(OC)c(S(=O)(=O)NC2CC(=O)N(c3cccc(F)c3)C2)c1", "note": "(stereo not drawn)", "Potency": "inconclusive [inhibitor, full curve, poor fit]"},
      {"smiles": "Cc1cc(C(=O)CSc2n[nH]c(N)n2)c(C)n1-c1cc(F)ccc1F", "Potency": "inconclusive [inhibitor, full curve]"},
      {"smiles": "CC(=O)c1sc(N)nc1C", "Potency": "inconclusive [inhibitor, partial curve]"},
      {"smiles": "COc1cc(NC(=O)Cc2nn(C)c(=O)c3ccccc23)cc(OC)c1OC", "Potency": "inactive"},
      {"smiles": "COc1ccc(C(=O)NCC2OCCc3ccccc32)cc1", "note": "(stereo not drawn)", "Potency": "inconclusive [inhibitor, single point]"},
      {"smiles": "NC(=O)C1CCN(C(=O)c2cccc(CN3C(=O)c4ccccc4C3=O)c2)CC1", "Potency": "inactive"},
      {"smiles": "COc1ccc(NC(=O)N(CCC(C)C)C(C)c2ccccn2)c(OC)c1", "note": "(stereo not drawn)", "Potency": "inconclusive [inhibitor, single point]"},
      {"smiles": "CC(C)Cn1c(N)c(C(=O)CSc2ncnc3sc4c(c23)CCCC4)c(=O)n(C)c1=O", "Potency": "inconclusive [inhibitor, full curve]"},
      {"smiles": "COc1ccc(-n2c(Cn3c(=O)sc4ccccc43)nnc2SCC(=O)N2CCCC2)cc1", "Potency": "inconclusive [inhibitor, partial curve, poor fit]"},
      {"smiles": "OC(CN1CCOCC1)Cn1c2ccccc2c2ccccc21", "note": "(stereo not drawn)", "Potency": "inactive"},
      {"smiles": "Cc1ccc(C(=O)CC(C(=O)O)c2cn(CCC#N)c3ccccc23)cc1", "note": "(stereo not drawn)", "Potency": "inconclusive [inhibitor, full curve, poor fit]"},
      {"smiles": "COc1ccc(C)cc1S(=O)(=O)N1CCC2(CC1)OCCN2S(=O)(=O)c1cccs1", "Potency": "inconclusive [inhibitor, single point]"},
      {"smiles": "CN1CCN(c2oc(/C=C/c3ccc(F)cc3)nc2C#N)CC1", "Potency": "inactive"},
      {"smiles": "CCCc1cc(=O)oc2cc(C)cc(OCC(=O)O)c12", "Potency": "inconclusive [inhibitor, full curve, poor fit]"},
      {"smiles": "CCN1CCN(CCCNC(=O)c2ccc3c(c2)N(Cc2ccccc2)CCS3)CC1", "Potency": "inactive"},
      {"smiles": "COc1ccccc1OCC(=O)Nc1ccc(S(=O)(=O)NC(C)=O)cc1", "Potency": "inconclusive [inhibitor, full curve]"},
      {"smiles": "COc1ccccc1CNC(=O)c1ccccc1OCc1ccc(F)cc1", "Potency": "inconclusive [inhibitor, partial curve, poor fit]"},
      {"smiles": "O=C(c1cccc(Cl)c1)N1CCCC(C(=O)N2CCN(c3ccccc3)CC2)C1", "note": "(stereo not drawn)", "Potency": "inconclusive [inhibitor, full curve, poor fit]"},
      {"smiles": "CCCS(=O)(=O)n1nc(-c2ccc(OC)cc2)cc1N", "Potency": "inconclusive [inhibitor, full curve, poor fit]"},
      {"smiles": "CC(=O)c1c(C)[nH]c(C(=O)NCCCN2CCCC2)c1C", "Potency": "inconclusive [inhibitor, single point]"},
      {"smiles": "CCCCN(CCCC)CCCOC(=O)c1ccc(N)cc1", "Potency": "inconclusive [inhibitor, partial curve, poor fit]"},
      {"smiles": "Cc1cc(C(F)(F)F)nn1-c1nc(-c2ccccc2)cc(C(F)(F)F)n1", "Potency": "inactive"},
      {"smiles": "O=C(Nc1ccccn1)C1CCN(S(=O)(=O)c2cccc3nonc23)CC1", "Potency": "inconclusive [inhibitor, partial curve]"}
    ]}
  ]
}
